88 compounds from publication PMC4336329 (PLoS ONE, 2015) can be followed below.

Molecules are shown by their SMILES. The campaign covered roughly 310,000 compounds. About 14,000 (4.5%) showed an effect of 50% or more. Effects have a minus sign here. This is one part of the list.
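Further: peak tail current of the secondary pulse compared with the same well before compound.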

In the experiment the target is human ether-à-go-go-related gene (hERG) potassium channel (human, UniProt Q12809). Description: primary screen, population patch clamp on CHO cells stably expressing hERG.
human ether-à-go-go-related gene (hERG) potassium channel, sequence (Q12809 whole entry, looked up): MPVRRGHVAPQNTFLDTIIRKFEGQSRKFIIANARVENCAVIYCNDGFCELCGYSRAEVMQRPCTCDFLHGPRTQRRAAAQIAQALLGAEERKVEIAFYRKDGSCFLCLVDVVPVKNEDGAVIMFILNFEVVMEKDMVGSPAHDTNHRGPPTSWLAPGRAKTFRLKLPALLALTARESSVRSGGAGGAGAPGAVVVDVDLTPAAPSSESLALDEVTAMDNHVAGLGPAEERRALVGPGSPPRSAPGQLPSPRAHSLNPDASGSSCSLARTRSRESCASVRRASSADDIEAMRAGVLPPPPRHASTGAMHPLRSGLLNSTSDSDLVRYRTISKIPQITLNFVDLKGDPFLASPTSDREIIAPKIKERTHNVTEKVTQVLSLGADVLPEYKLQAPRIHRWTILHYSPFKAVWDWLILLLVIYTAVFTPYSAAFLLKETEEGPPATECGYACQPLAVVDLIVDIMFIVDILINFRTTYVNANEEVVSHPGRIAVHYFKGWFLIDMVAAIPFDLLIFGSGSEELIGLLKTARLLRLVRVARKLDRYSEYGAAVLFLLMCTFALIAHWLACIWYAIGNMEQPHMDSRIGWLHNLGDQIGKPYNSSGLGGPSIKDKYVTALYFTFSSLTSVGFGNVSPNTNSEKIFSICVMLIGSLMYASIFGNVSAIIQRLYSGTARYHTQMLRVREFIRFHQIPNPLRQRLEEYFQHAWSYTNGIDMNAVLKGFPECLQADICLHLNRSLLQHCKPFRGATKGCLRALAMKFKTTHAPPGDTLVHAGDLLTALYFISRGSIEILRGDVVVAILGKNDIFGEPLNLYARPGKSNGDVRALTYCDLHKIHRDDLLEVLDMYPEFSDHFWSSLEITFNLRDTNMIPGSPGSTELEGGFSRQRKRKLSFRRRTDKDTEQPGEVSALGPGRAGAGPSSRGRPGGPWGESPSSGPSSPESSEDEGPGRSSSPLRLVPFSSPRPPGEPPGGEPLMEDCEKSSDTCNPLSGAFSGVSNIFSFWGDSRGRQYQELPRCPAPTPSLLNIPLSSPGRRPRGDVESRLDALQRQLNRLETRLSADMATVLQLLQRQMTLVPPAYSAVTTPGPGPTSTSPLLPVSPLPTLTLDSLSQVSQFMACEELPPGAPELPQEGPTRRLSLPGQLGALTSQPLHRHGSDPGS
Consider `COc1cccc(CN(C)CC(O)COC(c2ccccc2)c2ccccc2C)c1` (stereo not shown), for which the “hERG current change (%, negative = inhibition) at 10uM” value is -72.1%. Consider `COC(=O)c1c[nH]n2c(=O)c(Cc3ccc(F)cc3Cl)c(C)nc12`, for which the “hERG current change (%, negative = inhibition) at 10uM” value is on record as -8.9%. In the case of `Nc1nnnn1/N=C/c1ccc(N2CCCCC2)c([N+](=O)[O-])c1`, the “hERG current change (%, negative = inhibition) at 10uM” value is on record as 6.54%. The result for `CC(=O)c1sc(NC(=O)c2cccc(C)c2)nc1C` reads 14.6%. Take `O=C(O)Cc1c(O)ccc2ccccc12`: the “hERG current change (%, negative = inhibition) at 10uM” value was 8.27%.

`CN(Cc1ccc(F)cc1)C(=O)CNC(=O)c1cccs1`: the “hERG current change (%, negative = inhibition) at 10uM” value is reported as 8.07%.

For `CC(=O)Nc1ccc(NC(=O)C(Sc2ccccc2)c2ccccc2)cc1` (stereo not shown), the “hERG current change (%, negative = inhibition) at 10uM” value is listed as 7.38%.

For the compound `CC(C)c1ccc(NC(=O)NCc2ccccn2)cc1`, the “hERG current change (%, negative = inhibition) at 10uM” value is listed as 16.4%. The result for `CCOC(=O)/C(C#N)=C/c1cn(CCC(=O)O)nc1-c1ccc(F)cc1` reads 4.24%; that for `CN(Cc1ccc(C(F)(F)F)cc1)C(=O)c1ccc2ccccc2n1`, -14.3%; that for `CCOC(=O)C1=C(COC(=O)COc2ccc(C(C)=O)cc2)NC(=O)NC1C` (stereo not shown), 1.71%. The result for `N#Cc1c(-c2cccs2)nc(SCC(=O)c2cccs2)[nH]c1=O` reads -2.99%; that for `CCCCn1c(N)c(N(CC(C)C)C(=O)C2CCN(C(=O)c3ccc(F)cc3)CC2)c(=O)[nH]c1=O`, -3.7%; that for `COC(CNS(=O)(=O)c1ccc(S(=O)(=O)N2CCCC2)cc1)OC`, 5.43%.

`O=C(NC1CC1)C1=C[C@@H](c2coc3ccccc3c2=O)C[C@@H](OCCCCO)O1`: the “hERG current change (%, negative = inhibition) at 10uM” value is -23.8%. The result for `COc1cc(/C=N\NC(C)=O)ccc1OC/C=C/c1ccccc1` reads 19.9%; that for `O=C(CN(c1ccccc1F)S(=O)(=O)c1ccccc1)Nc1ccc2c(c1)OCCO2`, 9.5%. The result for `CCCCn1c(SCC(=O)Nc2cc(C)on2)nnc1-c1ccncc1` reads -2.69%; that for `CCc1cc2cc(C)c(C)cc2nc1SCC(=O)Nc1cc(C)on1`, 10.5%; that for `CCS(=O)(=O)NCc1csc(C)n1`, -3.59%. The result for `O=C(Nc1ccnn1C1CCN(Cc2cccc(OCCO)c2)CC1)c1cccc(F)c1` reads -12.3%. As to `COc1ccc(NC(C)=O)cc1NC(=O)c1cccc(S(=O)(=O)N2CCN(Cc3ccccc3)CC2)c1`, the “hERG current change (%, negative = inhibition) at 10uM” value is -27.8%. The result for `O=C(NCCc1ccccc1)c1ccc(NC2=NC3CS(=O)(=O)CC3S2)cc1` (stereo not shown) reads 1.97%; that for `CSc1ccc(CNc2ccc(C)cc2)cc1`, 7.52%; that for `CN(C)c1cccc(C(=O)N(Cc2ccccc2)Cc2ccccc2)c1`, 6.05%. The result for `COc1ccc(NC(=O)CC2C(=O)N(c3cccc(OC)c3)C(=O)N2Cc2ccco2)cc1` (stereo not shown) reads -20.9%. The result for `CCN1C(=NCc2ccc(OC)cc2)N[C@@H](CCc2ccccc2)[C@H](C(=O)NCc2ccc(OC)cc2)[C@H]1C` reads -65.4%. On to `CN(C)c1cc[n+](CC(=O)Nc2ccccc2C(F)(F)F)cc1.[Cl-]`, for which the “hERG current change (%, negative = inhibition) at 10uM” value came out at 4.83%.

For `O=C1CCCN1CCCNC(=S)Nc1ccc(F)c(Cl)c1`, the “hERG current change (%, negative = inhibition) at 10uM” value is -5.32%.

As for `C[C@@H]1C[C@H](O)c2cc(Cl)ccc2N1`, the “hERG current change (%, negative = inhibition) at 10uM” value came to 2.62%.

`COc1ccc(-c2cn[nH]c2-c2ccc(OCc3ccc([N+](=O)[O-])cc3)cc2O)cc1OC`: the “hERG current change (%, negative = inhibition) at 10uM” value came out at 7.08%. The result for `O=C(c1cccc([N+](=O)[O-])c1)N1CCN(c2n[nH]c(=O)[nH]c2=O)CC1` reads 7.6%. The result for `O=c1ccc2ccc(O[C@@H]3O[C@H](CO[C@@H]4OC[C@](O)(CO)[C@H]4O)[C@@H](O)[C@H](O)[C@H]3O)cc2o1` reads 22.8%. The result for `Cc1cc(/C=C2/NC(=S)NC2=O)c(C)n1-c1cccnc1` reads 8.26%; that for `COCCNC(=S)N/N=C(\C)c1ccccc1OC`, 3.66%. Consider `CNC(=O)N(O)C1N(C)C(=O)N(Cc2ccccc2)C1(C)C` (stereo not shown), for which the “hERG current change (%, negative = inhibition) at 10uM” value came out at 2.41%. The result for `C/C(=N\NC(=O)c1cccs1)c1cccnc1` reads 7.31%. Consider `COc1cccc(-c2cc(C(=O)N/N=C/c3ccco3)c3ccccc3n2)c1`, for which the “hERG current change (%, negative = inhibition) at 10uM” value is -2.76%. The result for `COc1ccc(NC(=O)Nc2cc(F)ccc2C)cc1` reads 34.1%.

Regarding `Cc1cccnc1CN1CCN(C(=O)c2cc(COc3ccc4ncccc4c3)on2)CC1`, the “hERG current change (%, negative = inhibition) at 10uM” value is on record as 12.8%. Regarding `CN(C(=O)COC(=O)c1ccc(Cl)nc1)C1CCS(=O)(=O)C1` (stereo not shown), the “hERG current change (%, negative = inhibition) at 10uM” value came out at 16.2%.

In the case of `O=C(COC(=O)C1CCN(S(=O)(=O)c2cccs2)CC1)c1ccc2c(c1)OCCO2`, the “hERG current change (%, negative = inhibition) at 10uM” value is given as 15.1%. The result for `Cc1n[nH]c(=O)nc1NCC1CCCO1` (stereo not shown) reads -20.8%. With `COc1ccc(-c2nn(-c3ccccc3)cc2/C=N/NC(=O)c2ccc3c(c2)OCO3)cc1`, the “hERG current change (%, negative = inhibition) at 10uM” value amounted to 4.83%. The result for `Cc1ccc(NC(=O)CC2S/C(=N/N=C3\CCCc4ccccc43)NC2=O)cc1` (stereo not shown) reads 8.91%. The result for `NNC(=O)CCC(=O)Nc1ccccc1` reads 4.03%. In the case of `COc1ccc(C(=O)Nc2cc(C)nn2-c2nc3ccccc3[nH]2)c(OC)c1`, the “hERG current change (%, negative = inhibition) at 10uM” value is reported as -5.95%.

In the case of `COc1cc(C2Nc3cccc4cccc(c34)N2)ccc1OC(C)=O`, the “hERG current change (%, negative = inhibition) at 10uM” value was 11.2%. In the case of `O=C(CN(CCO)c1ccccc1)Nc1ccc(Cl)c(S(=O)(=O)N2CCOCC2)c1`, the “hERG current change (%, negative = inhibition) at 10uM” value is -24.8%. Turning to `COc1cccc2c(=O)n(CC(=O)Nc3ccc(F)cc3F)ccc12`, the “hERG current change (%, negative = inhibition) at 10uM” value is reported as -0.258%.

`O=Cc1cccn1-c1c(C(=O)O)cnn1-c1ccccc1`: the “hERG current change (%, negative = inhibition) at 10uM” value was 38.5%. The result for `O=C(NNC(=S)NC(=O)c1cccnc1)c1ccc(F)cc1` reads -9.85%. The result for `CSc1ccc(OC2CCCCC2NS(=O)(=O)c2ccc(Cl)cc2)cc1` (stereo not shown) reads 0.762%; that for `Cc1cccc(C(=O)OC2CCOC2=O)c1O` (stereo not shown), 14.2%; that for `COc1ccc(C)cc1S(=O)(=O)NCCc1ccccc1`, -28.3%. The result for `O=C(CN1C(=O)NC2(CCCCC2)C1=O)Nc1cccc(Cl)c1Cl` reads -13.6%; that for `Cc1ccc[n+](CC(=O)Nc2ccc(N(C)C)cc2)c1.[Cl-]`, 17.3%; that for `CCN(c1ccccc1)S(=O)(=O)c1cccc(C(=O)NCC(c2cccs2)N(C)C)c1` (stereo not shown), -48.6%. `Cc1ccc(Nc2n[nH]c(C)c2[N+](=O)[O-])cc1`: the “hERG current change (%, negative = inhibition) at 10uM” value was 10.1%. The result for `Cc1cccc(NS(=O)(=O)c2ccc3c(c2)Cc2cc(S(=O)(=O)Nc4cccc(C)c4C)ccc2-3)c1C` reads 0.214%; that for `COc1ccc(/C=C/C(=O)NC(=S)NCCc2ccc(OC)c(OC)c2)cc1`, 10.6%; that for `CN(C)CCCN(C(=O)c1ccco1)c1nc2c(F)cc(F)cc2s1.Cl`, -72.2%. The result for `CC(C)NC(=O)COC(=O)c1ccccc1C(=O)c1ccccc1` reads 3.39%; that for `COc1ccc(OC)c(NC(=O)C2CCN(c3nc(C)cc(C)n3)CC2)c1`, -18.4%. Take `CCSc1nc(-c2cccs2)nc2ccccc12`: the “hERG current change (%, negative = inhibition) at 10uM” value worked out at 45.1%. The result for `CC(C)N(C(=O)CSc1nc2ccccc2n1Cc1ccccc1F)C(C)C` reads -19.1%; that for `COc1ccc(OC)c(NC(=O)NC2CCCCCCC2)c1`, 5.1%; that for `COc1ccc(NC(=O)/C(=C\c2ccco2)NC(=O)c2ccco2)cc1`, -11.1%. The result for `NC(=S)N/N=C/c1ccc(-c2ccc(SC(F)F)cc2)o1` reads -9.29%; that for `CC(C)Oc1ccc(CCNC(=O)C2CCC(=O)N(Cc3cccc(F)c3)C2)cc1` (stereo not shown), -14.1%; that for `Cc1nn(C)c(C)c1CN(C)C(=O)c1nn2c(c1Br)NC(c1cccs1)CC2C(F)(F)F` (stereo not shown), -20.7%.

In the case of `Cc1cc(Cl)ccc1OCC(=O)OC(C)C(=O)NC(N)=O` (stereo not shown), the “hERG current change (%, negative = inhibition) at 10uM” value is -11%. The result for `C[N+]1(C)C2CC[C@H]1CC(OC(=O)C(CO)c1ccccc1)C2.O=[N+]([O-])O` (stereo partly shown) reads -4.69%; that for `COc1ccc(N2C(=O)C3CCCN3C2c2cccs2)cc1` (stereo not shown), 1.87%; that for `Nc1cc(=O)[nH]c(SCC(=O)NCC2CCCO2)n1` (stereo not shown), 1.45%.

With `Cc1cccc(C)c1OCc1cc(C(=O)N2CC3C[C@@H]4CC2C[C@H](C3)C4)no1`, the “hERG current change (%, negative = inhibition) at 10uM” value was -2.85%.

As to `COc1cc(CN2CCN(C(=O)CC(C)C)CC2)cc(OC)c1OC`, the “hERG current change (%, negative = inhibition) at 10uM” value is reported as -23%. On to `Cc1cccc(C(=O)NNC(=O)c2ccc(Br)cc2)c1`, for which the “hERG current change (%, negative = inhibition) at 10uM” value worked out at 4.62%.

Consider `O=C(Nc1cnccn1)c1cccnc1`, for which the “hERG current change (%, negative = inhibition) at 10uM” value stood at 3.24%. The result for `CC(C)(C)C1CCc2sc(-c3nnc(CCl)o3)cc2C1` (stereo not shown) reads 10.8%; that for `COc1ccccc1N1CCN(C(=O)c2cc(=O)c3c(C)cc(C)cc3o2)CC1`, 22.5%; that for `Cc1ccn2cc(CSc3ccccc3N)nc2c1`, -29.1%. The result for `CC(C)[C@@H](C(=O)NCC1CCC(C(=O)O)CC1)n1nnc2ccccc2c1=O` (stereo partly shown) reads 19.1%; that for `CCOC(=O)c1ccc(NC(=O)COc2ccc(S(=O)(=O)NC(C)C)cc2)cc1`, 4.8%; that for `CCCCCc1c(C)nc(N2CCN(Cc3ccc4c(c3)OCO4)CC2)[nH]c1=O`, 11.7%. The result for `CNCc1c(OCc2ccccc2)ccc2ccccc12.Cl` reads -34.1%. Turning to `CCN(CC)C(=O)CSc1nc2cccnc2n1-c1ccccc1OC`, the “hERG current change (%, negative = inhibition) at 10uM” value is on record as -0.945%. `Cc1ccccc1-c1nc(CS(=O)CC(=O)NCc2ccccc2)c(C)o1` (stereo not shown): the “hERG current change (%, negative = inhibition) at 10uM” value is listed as -21%.
